Data taken from paper PMC9530240 (2022).

Experiments:
serum albumin [1] = assay: 50 °C
serum albumin [2] = assay: 60 °C

Kd (serum albumin [1]): 395 µM
Kd (serum albumin [2]): 672 µM
B1: recombinant β2-microglobulin monomer with an additional methionine residue at the N terminus (natural protein)
chain: not shown
modifications: uniformly 15N-labelled in the NMR experiment only
